# Measurements as given in the RNAGym collection of RNA variant scans (doi:10.1073/pnas.2313332121).
# Variants at the floor of the assay are shown more often than the library holds them.
# B1: TPR 5TU (parent)
# chain: GGAUCUUCUCGAUCUAACAAAAAAGACAAAUCUGCCACAAAGCUUGAGAGCAUCUUCGGAUGCAGAGGCGGCAGCCUUCGGUGGCGCGAUAGCGCCAACGUUCUCAACUAUGACACGCAAAACGCGUGCUCCGUUGAAUGGAGUUUAUCAUG
# Variants of: B1
# Assay: polymerase ribozyme fitness, log enrichment relative to wild type (log ratio); higher = more active; in vitro selection for triplet polymerase activity
# Method in brief: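 Each subunit of a heterodimeric triplet polymerase ribozyme was mutagenized into a library by PCR, transcribed, and subjected to one round of in vitro selection, run in triplicate. Libraries were annealed with a biotinylated primer, the partner subunit and triplets, incubated frozen at −7 °C, and extended constructs were gel-excised, captured on streptavidin beads and recovered by RT-PCR. Input and output libraries were sequenced on Illumina, keeping genotypes with ≥10 input reads and ≥1 read per output. Fitness is log base 2 of genotype enrichment divided by wild-type enrichment, from inverse-variance-weighted replicate averages.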
row,Variant,polymerase ribozyme fitness (log ratio)
1,A21C U148A,-3.11
2,A21G,0.531
3,A21G A22G A37C G62C G94C C103A A106C U130A,≤ -4.2
4,A21G A22G G25U U55A G71C G92A U102G C125U G126A,≤ -4.2
5,A21G A22U G67A G86C C96U G117A,≤ -4.2
6,A21G A23C U31A C32U A66C G83U,≤ -4.2
7,A21G A24C U31C C69G U148C,≤ -4.2
8,A21G A24U U53A G94A,-0.529
9,A21G A26C A49G G50A A64C U90G G94A G124U,≤ -4.2
10,A21G A26C A66U C87G A115C U134C U146A,≤ -4.2
11,A21G A26G A41U G46C U55A C85U A120G,≤ -4.2
12,A21G A26G C93U C125G G141U,≤ -4.2
13,A21G A28C G141C,≤ -4.2
14,A21G A28C U53A C75A G86A U127A G140A,≤ -4.2
15,A21G A28C U56A G62C G65A G74C,≤ -4.2
16,A21G A28G A115G,≤ -4.2
17,A21G A29C G48A C57U G68A G81C,≤ -4.2
18,A21G A29C G62U,≤ -4.2
19,A21G A29C U56A A137C,≤ -4.2
20,A21G A29U G50C G62U C69U C93A,≤ -4.2
21,A21G A37G C69A G80C C96A,≤ -4.2

row,Variant,polymerase ribozyme fitness (log ratio)
1,A21G A39C U78A C85G U102G C118G,≤ -4.2
2,A21G A39U C75U U82A C87A A98G C118U C125U,≤ -4.2
3,A21G A39U G46A U78G A91C G124U,≤ -4.2
4,A21G A40G G88A A106C,≤ -4.2
5,A21G A40U,0.957
6,A21G A41U C85A C116U,-1.58
7,A21G A47U A60C C87A C114U,≤ -4.2
8,A21G A49C G62C A66G G71C A106G,≤ -4.2
9,A21G A49G C63G C96U A98U C125G,-0.663
10,A21G A52C C75G C85U A89G C96G A150G,-3.89
11,A21G A52C G68A G71A U78G U90G C116U,≤ -4.2
12,A21G A52G G59U G92C A107U,≤ -4.2
13,A21G A52G U102A,-1.09
14,A21G A52U C85U G94U A98U C116U,-1.64
15,A21G A60G C63A C93G,-3.23
16,A21G A60G U78C A89U G92A G124U A137G G143U,≤ -4.2
17,A21G A73G C85A C103U A122U,-1.86
18,A21G A73G G86U G100C G136U C149G,≤ -4.2
19,A21G A89G A115C U148G,≤ -4.2
20,A21G A91G A115U C116A,-3.91
21,A21G A91U A110G U135C,≤ -4.2

row,Variant,polymerase ribozyme fitness (log ratio)
1,A21G C27G U33C G62U G81U C96U C105A A113U A122U,≤ -4.2
2,A21G C27U A28U U55G C93U,≤ -4.2
3,A21G C32G A39U C54U G59A U82G A91G U139G,≤ -4.2
4,A21G C35A A49G C96G,≤ -4.2
5,A21G C35A C43U G81A A121U A150C,≤ -4.2
6,A21G C35A C93A G128U A137C,≤ -4.2
7,A21G C35A U55A A97U A121G,≤ -4.2
8,A21G C35U C51U C57G C87U A89C C108G U134C,≤ -4.2
9,A21G C36G U78A C103G U134C,≤ -4.2
10,A21G C36U C57A,-0.735
11,A21G C36U G65A A91C C116U,≤ -4.2
12,A21G C38U A47C U90A C96A A137U,≤ -4.2
13,A21G C38U A60G C85U,1
14,A21G C38U U61A A89U U127A G128A,≤ -4.2
15,A21G C51U G136A A137C G141C,≤ -4.2
16,A21G C51U U53A C96U G126U,-2.46
17,A21G C54G G92C C108U G124A G133A,≤ -4.2
18,A21G C57A G74A C76G C87U G124U,≤ -4.2
19,A21G C57A G81C A97G U101C U135C,-1.99
20,A21G C75G A89U C95U G128U,≤ -4.2
21,A21G C75U A98G C99G C114U,≤ -4.2

row,Variant,polymerase ribozyme fitness (log ratio)
1,A21G C85G G86A,≤ -4.2
2,A21G C85U,-0.132
3,A21G C85U A138U U144C,≤ -4.2
4,A21G C93A C103U,-1.75
5,A21G C103A U104G A120G,≤ -4.2
6,A21G G25C G34A A49G C72U G92C G112U,≤ -4.2
7,A21G G25U U53A G81A C85A C131U,≤ -4.2
8,A21G G34U A97C A121G G136A A142U,≤ -4.2
9,A21G G42A C54U G59C G88C G92A,≤ -4.2
10,A21G G46A G50A U53A U56A G94C,≤ -4.2
11,A21G G46C U82G G88U C95G A98C,≤ -4.2
12,A21G G48A C54U G92A,≤ -4.2
13,A21G G50A C95G A98G G117A U139A,≤ -4.2
14,A21G G50C A120G G141A G143A,≤ -4.2
15,A21G G50U C76A A89U C93G C116A C123G C131A G141U G143U U146A,≤ -4.2
16,A21G G50U G59A G70A C72A C85G C93U,≤ -4.2
17,A21G G50U G92U A147C,-0.875
18,A21G G50U U56G A73U A113U,≤ -4.2
19,A21G G58C,0.298
20,A21G G59A G83A C87G,≤ -4.2
